In PubChem BioAssay (NCATS):
Values joined by “and” are separate entries in the source; they are usually repeats but may differ in a detail not shown here. Equal values may be shown once. This list was built around the results that the source calls inconclusive (neither active nor inactive); the mix of calls is not that of the screen. Potencies beside an inconclusive call are fits to weak or partial responses and may not hold up. A structure can be active in one record and inactive in another. Active and inactive are the calls of the source. Calls follow the shape of the dose curve; as a rule, active = well fitted curve in the direction sought with a large enough effect; inconclusive = small, poorly fitted or top-dose-only effect, or another doubt; inactive = no such curve, though single readings can be large; an effect the other way counts as inactive or inconclusive.

Columns and labels:
[1] = qHTS for Inhibitors of Plasmodium falciparum (DD2) proliferation (AID 504314);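 as to activity, negative = inhibition: parasite DNA measured by SYBR Green fluorescence after red cell lysis; plate controls were DMSO vehicle for no effect and artemisinin wells for full effect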; conditions: P. falciparum Dd2 in erythrocytes, SYBR Green growth, 72 h
Method in brief: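 Erythrocytes infected with P. falciparum Dd2 (0.3% parasitemia, 2.5% hematocrit) exposed to compound 72 h at 37C, 5% CO2. Parasite DNA quantified by SYBR Green fluorescence after saponin/Triton lysis overnight; normalized to 0.29 uM artemisinin and DMSO.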

[2] = qHTS for Inhibitors of Plasmodium falciparum (GB4) proliferation (AID 504315); also: nearly all actives have a fitted effect of over 50% in size;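 as to activity change, negative = inhibition: 0% = DMSO vehicle and -100% = 0.29 µM artemisinin control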; conditions: P. falciparum GB4 in erythrocytes, SYBR Green DNA, 72 h; activity change, negative = inhibition: at 6.7 µM (top of the series)
Method in brief: (§1)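 Erythrocytes infected with P. falciparum line (0.3% parasitemia, 2.5% hematocrit final) incubated with compounds 72 h at 37 °C, 5% CO2; SYBR Green lysis buffer added, fluorescence read next day. Normalized to 0.29 uM artemisinin and DMSO.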

[3] = qHTS for Inhibitors of Plasmodium falciparum (7G8) proliferation (AID 504316); also: nearly all actives have a fitted effect of over 65% in size;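 as to activity change, negative = inhibition: 0% = DMSO vehicle and -100% = 0.29 µM artemisinin full kill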; conditions: P. falciparum 7G8 in erythrocytes, SYBR Green DNA, 72 h; activity change, negative = inhibition: at 6.7 µM (top of the series)
Method in brief: as §1

[4] = qHTS for Inhibitors of Plasmodium falciparum (CP250) proliferation (AID 504320)
Method in brief: as §1

[5] = qHTS for Inhibitors of Plasmodium falciparum (HB3) proliferation (AID 504318); also: nearly all actives have a fitted effect of over 60% in size; conditions: P. falciparum HB3 in erythrocytes, SYBR Green DNA, 72 h; activity change, negative = inhibition: at 7.21 µM (top of the series)
Method in brief: as §1

[6] = activity, negative = inhibition: at 6.11 µM (top of the series)
Potency is read from the fitted curve at half-maximal effect; tags tell the direction and shape of the fitted curve.

With `C#CCN1C(=O)[C@]2(O[C@H](C)CC3=CCCC32)c2c(Br)cccc21` (stereo partly specified) the Potency [1, 6] was inconclusive: 4240 nM [inhibitor, single point].
In the case of `C=CCN1C=C2C(=O)C(C)(OC(=O)CCC(=O)OC)C(=O)C=C2C=C1C1CC1` (stereo unspecified), the activity, negative = inhibition [1, 6] is reported as inactive: 4.12% [at 1.12 µM].
In the case of `C=CCN1c2ccccc2[C@]23C[C@@H](C(=O)OC)N(C(=O)c4ccco4)C2=NC(C(=O)OC)=C(C(=O)OC)[C@H]13`, the activity, negative = inhibition [1, 6] is reported as inactive: 0.578% [at 1.12 µM].
For `C[C@@H]1CC2CCC[C@@H]2[C@]2(O1)C(=O)Nc1cccc(Br)c12` (stereo partly specified), the Potency [1, 6] was “inactive”.
For `COC(=O)CCCC1=CC2=CC(=O)C(C)(OC(=O)c3cccs3)C(=O)C2=CN1C1CC1` (stereo unspecified), the Potency [1, 6] was inconclusive: 369 nM [activator, partial curve, poor fit].
For `CC(=CCO)CCO`, the Potency [1, 6] was “inactive”.
For `CC(C)(C)Nc1oc(-c2ccccc2)nc1-c1ccccc1`, the Potency [1, 6] was inconclusive: 4240 nM [inhibitor, single point].
In the case of `C=CCN1c2ccccc2[C@]23C[C@@H](C(=O)OC)N(C(C)=O)C2=NC(C(=O)OC)=C(C(=O)OC)[C@H]13`, the activity, negative = inhibition [1, 6] is reported as inactive: 0.348% [at 1.12 µM].
With `CCOC(=O)CN1C(=O)N(CC)C(C)=C(C(=O)OC)[C@@H]1c1ccccc1` the Potency [1, 6] was inconclusive: 147 nM [activator, partial curve, poor fit].
In the case of `COC(=O)c1ccc(CN2C(=O)[C@]3(OCCC=C[C@@H]3C)c3ccccc32)cc1`, the Potency [1, 6] is reported as inconclusive: 3780 nM [inhibitor, partial curve, poor fit].
For `COc1ccc(OC)c(-c2ccccc2C=NNS(=O)(=O)c2ccc(C)cc2)c1`, the Potency [1, 6] was “inactive”.
With `CC(=O)Nc1ccc(S(=O)(=O)N2CCc3nc(-c4ccccc4)c4c(c3C2)CO[C@@H](C)C4)cc1` the Potency [1, 6] was inconclusive: 238 nM [inhibitor, full curve, poor fit].
For `CCCCC1=CC2=CC(=O)C(C)(OC(=O)CC)C(=O)C2=CN1C1CCCC1` (stereo unspecified), the activity, negative = inhibition [1, 6] was inactive: -3.96% [at 1.12 µM].
For `COc1cccc([C@@H]2Oc3ccc(Br)cc3C[C@@H]2OC(=O)N[S+](=O)([O-])c2ccc(C)cc2)c1`, the Potency [1, 6] was “inactive”.
In the case of `COc1ccc2c(c1)O[C@H](c1ccc3c(c1)OCO3)[C@@H](OC(=O)N[C@H]1CCCc3ccccc31)C2=O`, the Potency [1, 6] is reported as “inactive”.
With `C=C(CCN1C=C(C(=O)OCC)C(c2ccccc2)NC1=O)OC` (stereo unspecified) the Potency [1, 6] was “inactive”.
For `COC(=O)NC(c1ccccc1)c1c[nH]c2ccc(OC)cc12` (stereo unspecified), the Potency [1, 6] was inconclusive: 9.5 nM [activator, full curve, poor fit].
For `C=C(C#CCCO)CCN1C=C(C(=O)OCC)C(c2ccccc2)NC1=O` (stereo unspecified), the Potency [1, 6] was “inactive”.
With `COC(=O)C1=C(C(=O)OC)[C@@H]2N(C)c3ccccc3[C@@]23C[C@@H](CO)N=C3N1` the activity, negative = inhibition [1, 6] was inactive: -4.44% [at 1.12 µM].
With `COCCN1C(=O)CC[C@@]23C1=NC(C(=O)OC)=C(C(=O)OC)[C@@H]2N(C)c1ccccc13` the Potency [1, 6] was “inactive”.
With `COCCN1C(=O)NC(CCc2ccccc2)C(C(=O)OC)=C1C` (stereo unspecified) the Potency [1, 6] was inconclusive: 18.9 nM [inhibitor, full curve, poor fit].
In the case of `COC(=O)C1=C(C(=O)OC)[C@@H]2N(C)c3ccccc3[C@@]23C[C@@H](C(=O)OC)N(C(=O)NC(C)(C)C)C3=N1`, the Potency [1, 6] is reported as “inactive”.
With `CCCC[C@]12Cc3cc(OC)c(OC)cc3[C@H](O1)C1=C(CC3(CCCCC3)OC1=O)O2` the Potency [1, 6] was inconclusive: 3000 nM [inhibitor, single point].
For `CCCCc1nc2c(c3c1C[C@H](C)OC3)CN(S(=O)(=O)c1ccc(NC(C)=O)cc1)CC2`, the Potency [1, 6] was “inactive” and the Potency [2] was inconclusive: 0.5 nM [activator].
In the case of `CCOC(=O)N1C2=NC(C(=O)OC)=C(C(=O)OC)[C@@H]3Nc4ccccc4[C@]23C[C@H]1C(=O)OC`, the Potency [1, 6] is reported as inconclusive: 1.89 µM [inhibitor, single point] and inconclusive: 2.38 µM [inhibitor, single point], the activity, negative = inhibition [1, 6] is reported as inactive: -0.255% [at 1.12 µM] and the Potency [2] is reported as active: 1.9 µM and inactive. For the same compound, the Potency [3] was inconclusive: 2.13 µM [inhibitor, single point] and inconclusive: 3.79 µM [inhibitor, single point] and the Potency [4] was inconclusive: 4.26 µM [inhibitor, single point] and inconclusive: 0.5 nM [activator].
With `C[C@H]1Cc2c(-c3ccccc3)nc3c(c2CO1)CN(C(=O)NCc1ccco1)CC3` the activity, negative = inhibition [1, 6] was inconclusive: -13.9% [inhibitor] and the activity, negative = inhibition ([1]; at 1.12 µM (top of the series)) was inactive: 0.465%.
In the case of `CC#CCN1c2ccccc2[C@]23C[C@@H](C(=O)OC)N(C(=O)c4cccs4)C2=NC(C(=O)OC)=C(C(=O)OC)[C@H]13`, the activity, negative = inhibition [1, 6] is reported as inactive: 5.45% [at 1.12 µM] and the Potency [2] is reported as inconclusive: 53.6 nM [inhibitor, partial curve, poor fit].
For `COc1ccc(COC(=O)NN=C2C[C@@H](O)[C@@H](O)[C@@H]3[C@H]4C(=O)N([C@@H](C)c5ccccc5)C(=O)[C@@H]4CC[C@H]23)cc1`, the Potency [1, 6] was inconclusive: 2380 nM [inhibitor, partial curve, poor fit].
In the case of `O=C1[C@@H]2[C@H]3[C@H](O)[C@H](O)CC(=NOC[C@@H](O)COCc4ccco4)[C@@H]3CC[C@H]2C(=O)N1C[C@@H]1CCCO1`, the Potency [1, 6] is reported as “inactive”.
In the case of `C=CCN1C=C2C(=O)C(C)(OC(=O)c3ccco3)C(=O)C(C=C)=C2C=C1C1CC1` (stereo unspecified), the Potency [1, 6] is reported as inconclusive: 18.9 nM [inhibitor, full curve, poor fit], the activity, negative = inhibition [1, 6] is reported as inactive: 2.08% [at 1.12 µM] and the Potency [2] is reported as inconclusive: 169 nM [activator, partial curve, poor fit]. The Potency [3] was inconclusive: 1.9 µM [inhibitor, single point] and inactive and the Potency [5] was inconclusive: 4.26 µM [inhibitor, single point] and inconclusive: 849 nM [inhibitor, single point].
